Assay results: PubChem BioAssay (NCI)
Values joined by “and” are separate entries in the source; they are usually repeats but may differ in a detail not shown here. Equal values may be shown once.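 Tested at 5 concentrations; 48 h exposure; 96-well plates; endpoints linearly interpolated, else capped at highest concentration. GI50: concentration for 50% inhibition of growth. At the TGI there is no net growth.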

tested on: NCI-H322M lung; experiment: inhibition of tumour cell growth, NCI panel, 48 h

Row | SMILES | TGI | GI50
1 | Oc1ccccc1C=Nc1ccc(-c2nc3ccccc3s2)cc1 | > 100 µM | 
2 | Cc1cc(NS(=O)(=O)c2ccc(N=[N+]([O-])c3ccc(S(=O)(=O)Nc4cc(C)on4)cc3)cc2)no1 | > 100 µM | 
3 | N#Cc1cc(S(=O)(=O)Nc2nc3cc(Cl)ccc3o2)c(SCc2ccccc2)cc1Cl | 22.9 µM | 10.9 µM
4 | CCCc1nc2c(n1CC)C(=O)c1ccccc1C2=O | > 100 µM | 
5 | CCOC(=O)[C@@H]1CSC(CC)=C(C(=O)O)N1 | > 100 µM | > 100 µM
6 | O=C1C(=O)C2(CC1S(=O)(=O)c1ccccc1)c1ccccc1-c1ccccc12 (configuration not stated) | 53.3 µM | 
7 | Cc1ccc(S(=O)(=O)N2CCSCCSCCSCCN(S(=O)(=O)c3ccc(C)cc3)CC2)cc1 | > 100 µM | 
8 | COc1cc(NC2CCCCC2O)c2nc(-c3ccc(Cl)cc3)ccc2c1 (configuration not stated) | > 100 µM | 16.8 µM
9 | N#C/C(=C(/O)CCl)c1nc2ccccc2o1 | 62.2 µM | 
10 | CCOC(=O)c1c[nH]c(C(=O)C=[N+]=[N-])c1C1CCN(CC)C1=S (configuration not stated) | > 100 µM | 
11 | COc1ccc(C2C3CCc4ccccc4C3=NN2S(=O)(=O)c2cccc(C(=O)O)c2OC)cc1 (configuration not stated) | > 100 µM | 
12 | Nc1ncc2ncn(C3CCC(CO)O3)c2n1 (configuration not stated) | > 100 µM | 
13 | CC(C)(C)OC(=O)N1CCCC1C(=O)NC(c1ccccc1)c1ccccc1 (configuration not stated) | > 100 µM | 
14 | COc1ccc(C(O)c2cc3c(N)c(C(=O)Nc4cccc(Br)c4C)sc3nc2C)cc1 (configuration not stated) | > 33.3 µM | 0.689 µM
15 | C1CSCC2(COC2)CSCCSCC2(COC2)CS1 | > 100 µM | 
16 | COc1cc([C@@H]2c3cc4c(cc3[C@@H](Nc3ccc(Cl)cc3C(=O)c3ccccc3)[C@H]3COC(=O)[C@H]23)OCO4)cc(OC)c1OC | > 100 µM | 
17 | CCOC(=O)c1nc2ccc(C(F)(F)F)cc2nc1Nc1ccc(OC)cc1 | > 100 µM | 
18 | Cc1cc(C)nc(NS(=O)(=O)c2ccc(Nc3c4ccccc4nc4c(C(=O)NCCN(C)C)cccc34)cc2)n1 | 19.3 µM | 
19 | CCCCCCCCCCCCOCC1(COCCCCCCCCCCCC)COC(c2ccc(N)cc2)OC1 | > 100 µM | 
20 | O=C(NCCNCCNC(=O)c1cc(-c2ccccc2)nc2ccccc12)c1cc(-c2ccccc2)nc2ccccc12 | 10.9 µM | 
21 | COc1ccc(-c2cc(/C=C/C(=O)c3ccc(N)cc3)[nH]n2)cc1 | 9.27 µM | 1.84 µM
22 | OCC(O)C(O)C(O)C(O)c1nnc2c(-c3ccccc3)nc3ccccc3n12 (configuration not stated) | > 100 µM | 32.3 µM
23 | COc1cc2c3cc1Oc1c(OC)c(OC)cc4c1C(Cc1ccc(O)c(c1)Oc1ccc(cc1)CC3N(C)CC2)N(C)CC4 (configuration not stated) | > 100 µM | 28.5 µM
24 | COc1ccc(C2=Nn3c(nnc3-n3nc(C)cc3C)SC2)cc1 | > 100 µM | 0.59 µM
25 | CCOC(=O)C1=C(OC(OCC)C(CC)[Se]c2ccccc2)CCC1 (configuration not stated) | > 100 µM | 
26 | COc1ccc2c(c1)C(=O)c1c-2c(OCCN(C)C)nc2cc(OC)c(OC)cc12 | 43.3 µM | 1.45 µM
27 | NC(=O)[N+](=CC(=S)Nc1ccccc1Cl)C(N)=O | > 100 µM | 

Row | SMILES | TGI | GI50
28 | CC1=CCC(C(C)(C)NC(=O)c2ccccc2)C/C1=N/O (configuration not stated) | > 100 µM | 
29 | COC(=O)[C@@](NC(=O)OCc1ccccc1)([C@H](C)O)C(F)(F)F | > 100 µM | 
30 | O=C(O)CSc1n[nH]c(-c2ccco2)n1 | > 100 µM | 
31 | O=C1Oc2ccccc2C(=O)/C1=C/N1C(=O)CNC1=S | > 100 µM | 
32 | Cc1ccc2ccc(-c3ccccc3)c3c2c1C(=O)c1ccccc1C3=O | > 100 µM | 
33 | C=C1C2=C(CCCC2)C(=O)OC12CCCCC2 | > 100 µM | 
34 | CN(C)c1ccc(-c2ccc(-c3ccc(C(=N)N)cn3)o2)cc1 | 2.85 µM | 1.44 µM
35 | CCOC(=O)c1c(CN2CCN(C)CC2)nc2ccc(Cl)cc2c1-c1ccccc1 | 25.8 µM | 12.5 µM
36 | C[C@H]1CC[P+](C)(c2ccccc2)C1 (some centres not stated) | > 100 µM | 
37 | NC(=O)/C(=C/n1cnc(-c2cc(C(F)(F)F)cc(C(F)(F)F)c2)n1)c1cncnc1 | 12.4 µM | 0.46 µM
38 | O=c1oc2c3ccc4ccccc4c3n(CCN3CCCCC3)c2c2ccccc12 | > 100 µM | 
39 | O=C1CCC(=O)N1Sc1ccccc1 | > 100 µM | 
40 | Cc1sc2nc3n(c(=O)c2c1C)N=CN(c1ccc(Cl)cc1)C3 | > 100 µM | 
41 | CC(C)[Si]1(C(C)C)OCC2OC(n3ccc(=O)[nH]c3=O)C([Se]c3ccccc3)C2O[Si](C(C)C)(C(C)C)O1 (configuration not stated) | 27.1 µM | 
42 | C1=CC2CCC1CN2CCC1CNc2ccccc21 (configuration not stated) | > 100 µM | 
43 | COC(=O)/C=C/[C@@H]1[C@H](C)N1S(=O)(=O)c1ccc(C)cc1 (some centres not stated) | > 100 µM | 
44 | N#CCc1cccc(CC#N)c1Br | > 100 µM | 
45 | O=c1c2cc(O)ccc2n2nnc3ccc(NCCNCCO)c1c32 | 40.3 µM and 10.7 µM | 5.18 µM and 2.48 µM
46 | NCCCN=c1ccc2c3c1c(O)c1c(O)ccc(=O)c1c3[nH]n2CCNCCO | 15.1 µM and 16.8 µM | 3.7 µM
47 | CC1(C)OC[C@@H]([C@@]2(COC(c3ccccc3)(c3ccccc3)c3ccccc3)CC=CC(=O)O2)O1 | > 100 µM | 
48 | CC(=O)N1C(Nc2nccs2)CCN1c1ccccc1 (configuration not stated) | > 10 µM | 
49 | COc1ccc(COCC[C@H](C)OC2OC(CO)C(O)C(O)C2O)cc1 (some centres not stated) | > 100 µM | 
50 | Cc1cc(-c2nc3c(F)cccc3s2)ccc1N | > 100 µM | 
51 | CN=c1sc2nc(C#N)c(C#N)nc2n1C | 32.1 µM | 
52 | CCOP(=O)(O)C(Nc1ccc(N=Nc2ccccc2)cc1)c1cccc(C(Nc2ccc(N=Nc3ccccc3)cc2)P(=O)(O)OCC)c1 (configuration not stated) | > 100 µM | 
53 | COc1ccc2[nH]c3c(c2c1)[C@H]1CCC(C(C)(C)C)C[C@H]1[C@H]1C(=O)N(c2ccccc2)C(=O)[C@@H]31 (some centres not stated) | > 100 µM | 
